Reference: the supplement of paper PMC3334620
Over roughly 33,000 sequences, “E-score (-0.5 to 0.5)” has its median near -0.056; the highest 2% begin near 0.38. This is one part of the list.

The sequences below were run against Stb4 (UniProt P50104) (assay: PBM E-score (8-mer binding enrichment) (E-score (-0.5 to 0.5)); higher = stronger / more preferred TF binding; most listed sequences are background and not binding sites). Conditions: protein concentration: 200 nM; construct: GST-DNA-binding domain.
Description: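 Universal 'all 10-mer' protein binding microarrays (Agilent AMADID 015681) probed with GST-tagged S. cerevisiae TFs (full-length or DBD) made by in vitro transcription/translation (PURExpress), about 100-200 nM. Bound TF was detected with fluorescent anti-GST. Each ungapped 8-mer (which stands for itself and its reverse complement) is scored by the PBM enrichment score (E-score), a modified Wilcoxon-Mann-Whitney statistic from -0.5 to +0.5, computed with the Universal PBM Analysis Suite. Scale: above 0.35 generally sequence-specific binding.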

Sequence	PBM E-score
CCGTACCA	0.249
GTCATAAC	0.0465
CCGGTTTA	0.203
AGGCCAGA	-0.0213
CCACCGGG	0.178
CATTTAAA	0.0214
GAATCATA	-0.0546
AAAAGTGC	-0.106
CATCACTA	-0.115
AGTTTTTG	-0.00647
GATTTACA	0.0241
GCACCGAC	0.189
CACTACGA	-0.0972
GAAGCTGA	0.0871
GGATTAGA	0.0784
AGATAACG	0.093
GGCAGGAC	0.0678
GAACGACA	-0.0972
GCCTCCCA	-0.156
CACTGTAC	-0.168
CATAATGC	-0.00732
ACGTTGCT	-0.138
ACCGTTAC	-0.0808
GACGCCTC	-0.169
GGGAATTA	0.0702

Sequence	PBM E-score
CACTCTAA	-0.151
CATTATAG	-0.063
GCAGTTAC	-0.0397
CGAATGAC	0.277
GTAAAGAA	0.0948
CATTTAAG	-0.205
CGTAGCTC	-0.0298
AAGAAGGC	-0.183
TCGATTCA	-0.135
CCTCATCA	-0.175
ATCTCTCG	0.193
GTTACAGA	-0.199
ATACGAAT	-0.0803
CCCACGCC	-0.082
GCATAGCA	-0.129
AGGTGCAC	0.0308
AAGTTTAT	0.124
GACCTTGC	-0.00555
AGATCATA	-0.191
CCGCAAGA	0.151
ACAGAAAA	0.0774
AAACTCCT	-0.146
AATATAGA	-0.0363
CACCCATG	-0.151
CACTACTA	-0.0321

Sequence	PBM E-score
ATTCGCAA	-0.069
AAAGGCAA	-0.188
GGGGTCTA	0.048
GTATCCCA	-0.0937
AACCGAGT	0.305
CAAAGCTG	-0.0644
AAGGTTAT	0.049
CCTGCGTA	-0.0594
AACTGTTA	-0.038
AGTAGTAC	-0.028
CAATAAGC	-0.128
GGCATACC	0.0586
ATATGAGC	-0.115
AGTGCGTG	-0.0522
GCATCGCC	0.00305
GACCGAAC	0.286
ATGAGACA	-0.117
GGCAAAGA	0.0407
GAGTGGCC	-0.0643
AATGGTTC	-0.0491
ACACGTCG	0.046
ACGCCTGA	-0.231
GTGACTTA	-0.169
CATTTGGC	-0.0228
AAGGTAAG	-0.142

Sequence	PBM E-score
TATGCGCA	-0.105
ATGACTTC	-0.0339
GACGGCAA	0.24
CGCAAGCC	-0.0679
ACTTTCCT	-0.22
CGTCGAGC	-0.0924
TAACCCAA	-0.116
TCATGGCA	-0.0593
AGTAAGGA	-0.105
CCCAATTC	-0.0232
GGCAGGGA	-0.0459
CAATCGCG	-0.0263
ACGCGACC	-0.0646
GCGAACGC	-0.0479
CAGCTTGC	-0.146
CTAGCAGC	-0.238
CACTGTTC	-0.0206
TAAGTTCA	-0.0313
AGTTCGGG	0.426
GCATCGTA	-0.026
GCAGTCTA	-0.226
GAAATTAC	0.0977
GCAGCTAA	-0.185
CGCAGTAA	-0.0226
ATCTGCAG	-0.0776

Sequence	PBM E-score
AAAAGTAC	-0.0396
GGTTAGTA	0.154
ACTAGTTC	-0.0341
ACCCCTTG	-0.27
CCAGATTA	-0.00871
ATGTTACA	-0.0716
ATATACAG	-0.0645
ATTTCCTA	-0.012
TCAGCAAA	-0.0931
ATCCGTCA	0.28
AAGTTTCT	-0.242
ACGGGCGG	0.159
GAGAGCGC	0.0595
CGCGACCG	0.0849
CAAGCCGG	0.216
TCGACTCA	-0.158
ACGCCTAT	-0.142
AAGCTTTC	0.113
GTTGTTAA	-0.0452
GCTATAAA	0.0582
CTTAGCAC	0.0582
TATGGAGA	-0.223
CCTGAATC	-0.0486
GAATGATC	0.0811
CGTTCGTA	-0.0524

Sequence	PBM E-score
ACGTACCG	0.158
AGGTACCT	-0.215
CGTAAGAG	-0.0499
GCTAAGAA	0.0449
ACCATACA	0.0548
AGCATCGG	0.292
CGTTAGCA	-0.0245
GGTTTCCA	-0.164
GACGAAAA	0.0557
AGCCGGCT	0.238
CTTAGCCC	-0.0241
AGGATCTG	-0.198
AGTTAGTA	-0.0847
ACTGCTAC	-0.19
ATCCTTAC	-0.0109
ATAGATGA	-0.0532
CAGAGCCA	-0.247
CGGGCAAA	0.197
AGGCTTTA	-0.149
ACACGGAA	0.338
AACCTACG	-0.064
CAATATGG	-0.189
CTCGACAA	-0.243
GTTTTGGA	-0.0981
ACCCGTGG	0.192

Sequence	PBM E-score
ATCGATAA	0.0115
AGCGTGGG	-0.158
AATTAGCC	0.225
AGATTATG	0.0822
CCATCCCC	0.0182
ACATCATA	-0.207
CACATGCG	-0.0206
CTCTTAGA	-0.148
AGAAAAAC	0.0789
TCGTCACA	-0.142
ATTACGAG	-0.0498
CCGGTCCC	0.282
GTGAGCCA	-0.259
CAATGGAA	-0.00985
ATAAATAA	0.096
ATAAGTAA	0.0286
CCTCTTCA	-0.228
CCGTGAAA	0.145
CTTTACTA	0.0402
CGGGATCC	0.362
ACGGTTTG	0.0503
AACTTGCA	-0.142
GCCCCTGA	-0.151
CCACTTTC	0.0186
AATCACCA	-0.0406

Sequence	PBM E-score
ACAGGCCC	-0.1
AACTAAAT	-0.115
GTAACGAC	-0.0977
CATTCTTC	-0.0802
TACCAAAA	-0.12
AGATACGA	-0.0774
ATGGGCTG	-0.291
CACTAGCA	-0.366
CGAATGGC	0.0616
TCGGCCAA	0.154
CAGGGACG	-0.237
TCGTGCCA	-0.287
TAGCTCCA	-0.13
CGAACCGA	0.397
AGTGGCGG	0.0057
CAGCCCAA	-0.0393
GGCCACGA	0.032
CCCACTGC	-0.119
CGGATAGC	0.394
TCGCCCGA	0.185
GATTTGAA	-0.0567
CCGTCAAA	0.0747
GAGAGCCC	-0.189
ACAGTCTG	-0.101
GAGCCAGA	-0.0624

Sequence	PBM E-score
GTGGAGGA	-0.111
CTGACTGC	-0.159
GGAAATTA	0.206
AGCTGGTA	-0.177
CTCAGTCA	-0.283
GACACGCC	0.215
TACTCAGA	-0.0115
ACATCGAT	-0.034
ATTAGAGC	-0.123
ACTAAGGA	-0.111
CTCGCGAA	-0.186
GCCTGATA	-0.232
AAAGGAAG	0.0446
GTACCTCA	-0.189
CTAGGCAC	-0.144
AACTCGCT	0.00937
TACGATAA	-0.162
CAAATTTC	-0.0668
AGCTCGCA	-0.108
GACCACTC	0.0629
AGCATCAT	-0.0917
ACATACCG	0.0646
CTGCGCGC	0.0597
GTATTACA	0.028
AACTATCA	0.0771

Sequence	PBM E-score
CGGTGCCA	-0.0951
ACGGCCTA	0.0635
AAAGGTGG	-0.152
TCCGCGCA	0.284
AGATGGCA	-0.0446
ACTCAGAT	-0.212
ACGATTAA	-0.0906
ACCTGAGC	-0.274
AATTACCG	0.283
AACATTCG	0.0901
GTTCAGAA	-0.102
ACAGACCC	0.118
TACCTGAA	-0.133
AACAAGAA	-0.0133
AGTGGATG	-0.152
AAAGCCCG	0.167
GACGCGAC	-0.068
GTTTTGTA	0.0271
CTCTTGAC	-0.107
CTCCCTTC	-0.0453
AACGGGTC	0.156
AGCAAGAT	-0.0547
TCTATTCA	-0.201
AGCGGTCA	-0.0327
GGCTGACA	0.121

Sequence	PBM E-score
CATTCGGC	0.409
CGTACATA	-0.0677
ACGAGAGG	-0.046
TACTTCTA	-0.254
AATACAGA	0.0167
ACCCGACT	0.33
GCGAATCC	-0.0095
AAGCCGAG	0.401
ACGAAGCG	-0.267
CTTGCGCC	-0.117
CAGGTCCA	-0.146
CCGACTAC	0.281
ATCGACGA	-0.00793
CACCACTG	-0.27
AGCGCCCT	-0.0352
AAGAGGCC	0.0161
GTTCGTGA	-0.205
AGTACGTA	-0.192
CAAAGTGG	-0.223
GTGACCGA	0.182
GACCGACC	0.0661
GGTAGACC	0.143
CTCTAATC	-0.0726
CACGAGTC	-0.186
GACCGGAC	0.203

Sequence	PBM E-score
CAGCGGAG	0.03
ACCTTCGC	0.0537
CAACAGCA	-0.113
AATCATAG	-0.00235
ATATTGAA	-0.0305
CAAACGAG	-0.121
CTAGTGAA	-0.124
ATCCCCAC	0.0276
ATGTCTTC	-0.0885
CCAGGGAC	-0.237
ACCCAAAC	0.0138
GCCATTCA	-0.0733
AGCTGCGA	-0.0306
GCTGATGA	-0.157
ATTCTTTG	-0.167
ATTAAGGA	-0.00265
CAAATCCC	0.141
AACAGGCT	-0.216
CACAAGAC	-0.231
CATATCCA	-0.178
CTGTCCGA	0.282
ATGGATCA	-0.156
CCTGTGGC	-0.0365
AAGCCTGG	-0.14
CAGAACAC	-0.0656

Sequence	PBM E-score
TAACTCTA	-0.104
GCGCTAGA	-0.16
TCGCTAGA	-0.16
AAGGTTCA	-0.021
TGGCTTAA	-0.0753
AGCACAGC	-0.0525
AAGAGTAT	-0.137
AGGCCGAC	0.245
TTGGCCAA	-0.299
AGCTGTGG	-0.173
CGCTGTTC	-0.137
CTGTTTGA	-0.128
GACTTCGC	-0.0039
CCCTAGAC	-0.32
AGTCCCTG	-0.233
AATGTAGG	-0.0343
AGTTTTAA	-0.105
AGGCTACG	-0.281
GCGCGAAA	0.052
ACCGAACG	0.345
CCTAAACG	-0.0588
GCTCCCTA	-0.216
GCTCGGAA	0.482
GTAAAAAC	-0.0446
ACACTCTG	-0.238

Sequence	PBM E-score
ATAGCGCG	0.00989
CCGCCACC	0.0636
ACTCTGCG	-0.098
CTAATCCA	-0.067
GAACTATC	-0.0561
CAGAACCG	0.0439
TAGCCCAA	-0.199
GTGCACAC	-0.201
CAACAAAC	0.0637
AGACTCGA	-0.181
ATTTGGCG	-0.136
GGTACCAC	0.104
ATAGTACC	0.0777
GCATAAGA	0.0427
CTCGGCTA	0.472
CTCTGGAC	-0.0837
AATACCAC	-0.0945
ATTGCCAG	0.121
AGCACTGC	-0.134
